Measured values reported in the supplement of paper PMC12217912.
The other results are listed elsewhere or left out. Sequences were assembled here from the parent chain. Inactive controls read about 0.05.

B1: TEV protease; numbered along this chain (parent)
chain: MGESLFKGPRDYNPISSSICHLTNESDGHTTSLYGIGFGPFIITNKHLFRRNNGTLVVQSLHGVFKVKDTTTLQQHLVDGRDMIIIRMPKDFPPFPQKLKFREPQREERICLVTTNFQTKSMSSMVSDTSCTFPSGDGIFWKHWIQTKDGQCGSPLVSTRDGFIVGIHSASNFTNTNNYFTSVPKNFMELLTNQEAQQWVSGWRLNADSVLWGGHKVFMVKPEEPFQPVKEATQL

Variants of: B1
Test: raw area under fraction-flipped curve 0-4 h after induction (AUC4h, not background-subtracted), DNA-recorder readout of cleavage of the substrate (dimensionless); higher = more cleavage of the substrate by the protease variant
Conditions: temperature: 34 °C; time window: 0-4 h after rhamnose induction
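Note: Bxb1 expression induced with 0.2% (w/v) L-rhamnose at OD600 near 0.5, cultures sampled hourly, flipped fraction per protease–substrate barcode pair counted by paired-end Illumina sequencing.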

| Variant | area with substrate ENLYFDS | area with substrate ENLYFES | area with substrate ENLYFFS | area with substrate ENLYFGS | area with substrate ENLYFMS | area with substrate ENLYFNS | area with substrate ENLYFPS | area with substrate ENLYFRS | area with substrate ENLYFVS | area with substrate ENLYFWS | area with substrate ENLYFTS | area with substrate ENLYFYS | area with substrate ENLYFHS | area with substrate ENLYFIS | area with substrate ENLYFLS | area with substrate ENLYFKS | area with substrate ENLYFSS | area with substrate ENLYFCS |
| --- | --- | --- | --- | --- | --- | --- | --- | --- | --- | --- | --- | --- | --- | --- | --- | --- | --- | --- |
| S158R | 0.0384 | 0.0548 | 0.0619 | 0.0606 | 0.0424 | 0.0362 | 0.0388 | 0.0594 | 0.0483 | 0.04 |  |  |  |  |  |  |  |  |
| G214Q | 0.0528 |  |  |  |  |  |  |  |  |  | 0.0838 | 0.0644 |  |  |  |  |  |  |
| M83S | 0.0544 | 0.0636 | 0.0674 | 0.0649 | 0.0535 | 0.0684 | 0.0562 |  |  | 0.06 | 0.0429 | 0.0516 | 0.0558 | 0.0508 | 0.0647 |  |  |  |
| M83V | 0.0565 | 0.0507 |  |  | 0.0641 | 0.0703 | 0.0551 |  | 0.0738 |  | 0.0665 | 0.0538 |  | 0.0549 |  | 0.065 | 0.0498 |  |
| K120M | 0.056 | 0.0678 | 0.0771 |  | 0.0497 |  | 0.0655 | 0.0569 | 0.0312 |  | 0.06 |  |  | 0.055 |  | 0.0501 | 0.0589 | 0.0538 |
| A207L |  | 0.0482 | 0.0691 |  | 0.0636 |  | 0.0627 | 0.0425 |  | 0.0591 |  |  |  | 0.0571 |  |  | 0.0595 |  |
| G35Q | 0.0541 |  |  |  |  | 0.0319 | 0.0228 |  |  |  |  |  |  | 0.0432 |  |  |  |  |
| S4F | 0.0456 | 0.0763 | 0.0668 |  | 0.0868 | 0.0965 | 0.0585 | 0.0638 | 0.0545 | 0.0684 | 0.0811 |  | 0.0703 | 0.0611 |  | 0.0639 | 0.0436 | 0.0664 |
| G138C | 0.0593 |  |  |  |  |  |  | 0.0594 |  |  |  |  |  |  |  | 0.0516 |  |  |
| T147D | 0.0597 |  |  |  |  |  | 0.046 | 0.0574 |  |  |  |  |  |  |  |  | 0.0716 |  |
| A170M |  | 0.0741 |  |  | 0.0587 |  | 0.0723 | 0.065 |  |  |  |  |  |  |  | 0.0656 | 0.0608 | 0.061 |
| P134I | 0.0623 | 0.0539 |  |  | 0.0662 | 0.0614 | 0.0728 | 0.0529 | 0.0483 | 0.0596 | 0.0677 |  | 0.0559 | 0.0766 | 0.0574 |  | 0.0504 | 0.0479 |
| P134K | 0.0484 |  | 0.0916 |  | 0.0538 | 0.0709 | 0.0682 |  | 0.0488 | 0.0514 | 0.0599 |  |  | 0.0624 |  |  |  | 0.0608 |
| F41K | 0.065 |  | 0.0505 |  | 0.04 | 0.0483 | 0.0481 |  | 0.0475 |  | 0.063 |  |  | 0.0438 |  | 0.0628 | 0.0483 | 0.05 |
| L211S | 0.0571 |  |  |  | 0.0701 |  | 0.0742 |  |  |  |  | 0.0552 |  |  |  | 0.0422 |  |  |
| D137E | 0.0626 | 0.0693 | 0.0649 | 0.07 | 0.0651 | 0.0501 | 0.039 | 0.0387 |  | 0.0504 | 0.0586 |  |  | 0.0614 | 0.0556 | 0.0663 |  | 0.0396 |
| Q75T |  | 0.0626 | 0.0698 |  | 0.0695 | 0.0688 | 0.0444 | 0.0452 |  |  | 0.06 |  | 0.0704 | 0.0563 | 0.0666 |  | 0.0646 | 0.0664 |
| D161E | 0.0642 | 0.0518 | 0.063 |  | 0.0675 | 0.0606 | 0.0467 | 0.0563 | 0.0473 | 0.0504 | 0.0556 | 0.0467 | 0.056 | 0.0528 | 0.0732 | 0.053 | 0.0564 | 0.0594 |
